Whole data set: some 3,600 compounds, median “viability index relative to DMSO control” near 0.81, cut for the lowest 2% near 0.13. Some of the results follow.

These results are taken from the supplement of paper PMC4723716.
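Note: 384-well serum-free SaLSSA: MitoTracker Red CMXRos staining with saponin lysis, high-content imaging, treated-well particle count divided by plate-mean count of DMSO wells.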

This test relates to Plasmodium falciparum NF54 stage V gametocytes. Put plainly: viability index relative to DMSO control (fraction); higher = less gametocyte killing. To be noted: 1.25 µM, incubation time: 72 h.
Compound `COc1cccc(CNc2ncnc3sc(C(=O)NCC4COCCO4)c(C)c23)c1OC` (stereo unspecified) registered a viability index of 1.1. As for `CCSCCOC(=O)C1=C(C)NC2=C(C(=O)CCC2)C1c1ccc(OC)c(Br)c1` (stereo unspecified), the figure is 0.604; as for `O=C(Cn1nc([N+](=O)[O-])nc1Br)NC1CCCCC1`, 0.885; as for `CCCCc1nc(CN2CCC3(CC2)C(=O)N(CCc2ccccc2)C(=O)N3C)c[nH]1`, 1.11. Compound `CC(=NO)c1ccc(NC2=C(N3CCCCC3)C(=O)c3ccccc3C2=O)cc1` came in with a viability index of 0.245. For `COc1cc(C2CC(=O)NC3=C2C(=O)CC(c2ccccc2Cl)C3)ccc1O` (stereo unspecified), the viability index stood at 0.739. `Cc1cc(Cl)c(S(=O)(=O)N2CCSCC2)cc1OCC(=O)NC1CCCCC1`: the viability index came out at 0.727. As for `CCC(C)OC(=O)C1=C(C)NC2=C(C(=O)CC(c3ccc(OC)cc3)C2)C1c1ccc(O)cc1` (stereo unspecified), the viability index turned out to be 1.2. Regarding `CCOC(=O)c1c(C)n(-c2ccccc2)c2ccc(OC(=O)c3ccccc3NC(=O)C(C)C)cc12`, the viability index was 0.894.

Compound `CCOC(=O)c1c(CNc2ccncc2)n(C)c2cc(Br)c(OC(C)=O)cc12` displayed a viability index of 0.78.

`N[C@@H](COP(=O)(O)O)C(=O)O`: the viability index was determined as 0.933. Compound `COc1ccc(C2(CNCC(O)c3cccc([N+](=O)[O-])c3)CCCC2)cc1OC` (stereo unspecified) registered a viability index of 0.543.

Compound `CSc1nccc(-c2cc(F)cc3c2OC(CNC(=O)C2CC(=O)c4ccccc42)C3)n1` (stereo unspecified) gave a viability index of 0.731. Under `Cc1ccc(-c2cn3c([n+]2-c2ccccc2)SCC3)cc1` stands 0.728; under `COc1ccccc1CNC(=O)c1nn(-c2ccc(Cl)cc2)c(=O)c2ccccc12`, 0.888. For `COCCCNc1nc2cc(OC)c(OC)cc2c2nc(-c3ccccc3)nn12`, the viability index is 0.843. As for `Cc1ccc2[nH]c(C(C#N)=Cc3cn(Cc4ccc(Cl)cc4Cl)nc3-c3ccccc3)nc2c1`, the viability index came to 0.287. As for `CCCNC1=C(c2ccc(OC)cc2)C(=O)c2ccccc21`, the viability index was 0.731. For the compound `COCCOC(=O)C1=C(C)NC2=C(C(=O)CC(c3ccc(OC)cc3)C2)C1c1ccc(Cl)cc1` (stereo unspecified), the viability index was found to be 0.596.

On to `CCOc1ccc(C(=O)N2CCN(Cc3ccccc3)CC2)cc1`, for which the viability index is 1. `CCCCOc1ccc(/C=C(/C#N)c2nc(-c3ccc(-c4ccccc4)cc3)cs2)cc1` returned a viability index of 0.942. As to `COc1ccc(CN2CCN(Cc3ccc(OC)c(C)c3C)C(CCO)C2)c(O)c1` (stereo unspecified), the viability index came out at 0.971. Regarding `CC(=O)Nc1ccc(NS(=O)(=O)c2cc([N+](=O)[O-])ccc2Cl)cc1`, the viability index worked out at 1.03. The compound `CC(C)CN1C(=O)N(CCCc2cccnc2)C(=O)C12CCN(C1CCOCC1)CC2` had a viability index of 1.11. Under `O=C(CSc1nnc2c(n1)[nH]c1ccccc12)Nc1ccc([N+](=O)[O-])cc1` stands 0.925.

Turning to `O=C1c2ccccc2C2=Nc3ccccc3SC(c3cccc(F)c3)C12` (stereo unspecified), the viability index was found to be 0.417. `Cc1ccc(-c2nn3c(O)c4c(nc3c2C)CCCC4)cc1` yielded a viability index of 0.609.

The compound `CCOC(=O)c1ccc(NC2=C(N3CCCCC3)C(=O)c3ccccc3C2=O)cc1` gave a viability index of 0.6. As for `Nc1cccc(C(=O)Nc2ccc(Oc3cccc(Oc4ccc(NC(=O)c5cccc(N)c5)cc4)c3)cc2)c1`, the figure is 0.86; as for `CCN1CCN(c2c(C(=O)c3ccccc3)cnc3cc(OC)c(OC)cc23)CC1`, 0.948. Compound `COc1ccc(Nc2nc(NN=Cc3cc([N+](=O)[O-])ccc3OC)nc(Nc3ccc([N+](=O)[O-])cc3)n2)cc1` displayed a viability index of 0.888.

For `COc1cc2nc(NCc3ccccn3)n3nc(-c4ccccc4)nc3c2cc1OC`, the viability index was determined as 0.458. As for `c1ccc2nc3c(nnc4ccccc43)nc2c1`, the figure is 0.092; as for `Oc1c(C(Nc2ccccn2)c2cccc(Oc3ccccc3)c2)ccc2cccnc12` (stereo unspecified), 0.884; as for `C=CCC1(Nc2ccccc2)CCCCC1`, 1.14. With `Cc1ccc(C(=O)NC2CCN(S(=O)(=O)c3c(C)cc(C)cc3C)CC2)cc1`, the viability index is 0.964. `CCCc1c(C)nc2ccc(C)cc2c1O` had a viability index of 0.822. `Cn1cc(C=Cc2cc[n+](C)cc2)c2ccccc21` showed a viability index of 0.848. `Cc1cc(C)n(-c2ccc(NC(=O)C3CCN(Cc4ccc5nonc5c4)CC3)cc2)n1` showed a viability index of 0.837. The compound `O=C(CN1CCN(C(=O)c2ccco2)CC1)Nc1ccccc1Br` registered a viability index of 0.815. The compound `CCOC(=O)C1=C(CC)NC2=C(C(=O)CCC2)C1c1ccc(N(C)C)cc1` (stereo unspecified) displayed a viability index of 0.679. With `CCOC(=O)c1ccc2c(c1)[C@@H]1C=CC[C@@H]1[C@H](c1ccc(OC)c([N+](=O)[O-])c1)N2`, the viability index came out at 1.04. In turn, `CCCNC1=C(N(C(C)=O)c2ccc(C)cc2)C(=O)c2ccccc2C1=O` registered a viability index of 0.0531. In turn, `O=C(Nc1ccc(OC(F)(F)F)cc1)c1cnn2c1NC(c1cccs1)CC2C(F)(F)F` (stereo unspecified) showed a viability index of 0.642. `Clc1ccc(-n2cc(-c3ccccc3)c3c(N4CCC(Cc5ccccc5)CC4)ncnc32)cc1` showed a viability index of 1.07.

`Cc1ccccc1OCCSc1nc2ccc(NC(=O)c3cccs3)cc2s1` yielded a viability index of 0.952. As to `COc1cc(C=CC(=O)Nc2c3c(nn2-c2ccc(F)cc2)CSC3)cc(OC)c1OC`, the viability index worked out at 0.967. In the case of `O=C1C(Nc2cccc(O)c2)=C(N2CCCCC2)C(=O)c2ccccc21`, the viability index stood at 0.661. `N=C(NN=Cc1cccc([N+](=O)[O-])c1)SC1CC(=O)N(c2cc(Cl)ccc2Cl)C1=O` (stereo unspecified): the viability index is 0.685. `CC(C)CCNC(=O)CN1C(=O)c2cccnc2Oc2ccccc21` came in with a viability index of 0.984. As for `COc1ccc2nc(C)cc(Nc3ccc(Oc4ccc5ccccc5c4Cl)c(Cl)c3)c2c1`, the viability index was found to be 0.612.

As to `CCOC(=O)C1=C(C)NC2=C(C(=O)C(C(=O)OCC)C(c3ccccc3OC)C2)C1c1ccc(OC)c(OC)c1` (stereo unspecified), the viability index was 0.39. As for `CCOc1ccc(Nc2ccnc3cc(Cl)ccc23)cc1`, the figure is 0.888; as for `CCCN1CCN(CCCNC(=O)c2ccc3c(c2)sc2nc(-c4ccc(OC)cc4)cn23)CC1`, 0.98. In turn, `O=C1N(c2ccccc2)C[C@@H]2C[C@@H](c3ccc4nonc4c3)N3CCC[C@@]123` returned a viability index of 0.702. The compound `Cc1cc(C)cc(NCC(O)Cn2c3ccc(Cl)cc3c3cc(Cl)ccc32)c1` (stereo unspecified) gave a viability index of 0.755.
